In paper PMC12136788:
The other results are listed elsewhere or left out.

T1: UNK ZnF1-3 (human, UniProt Q9C0B0 31-174)
T1 sequence: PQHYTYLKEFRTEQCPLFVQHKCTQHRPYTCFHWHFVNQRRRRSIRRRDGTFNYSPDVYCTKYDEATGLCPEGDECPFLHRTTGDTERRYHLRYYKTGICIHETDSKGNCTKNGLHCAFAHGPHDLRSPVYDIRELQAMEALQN

B1: chr2:202488911:202488912:-_ENSG00000155755_ENST00000286196|hu_mus|hu_hu_hu_mus_False|18_58 (ssRNA)
RNA: GGGAGUUCUACAGUCCGACGAUCAUUGAAACAUUUUUCAUAAUCUCCAGUAGCAUUUCAGCAUUAUGUAACAAAAGAUCUAUUACAAAUACAUGUAUCUUAUAAAAAUACACUUAAAUUUAAAAACGGGGAGCGCAGGCGCCACAACAGAGGAUUGAGCAUCA
B2: 44444931_44445051_2242_3pUTR_ENSMUSG00000032097_ENSMUST00000170489|mouse|control|control (ssRNA)
RNA: GGGAGUUCUACAGUCCGACGAUCGUGUGUAAAGAUGAUAUUCUUAAUGGUCUUGUAGCAUAAGGCACUUCGCACAAAUAAGUAAUAAGCUCUUCAGGCUUAAAAACGGAUGAAUAAUCAGGGAGAAGUUGAAAUGCAGUAGAGCAACAGAGGAUUGAGCAUCA
B3: chr12:39756943:39756944:-_ENSG00000139116_ENST00000544797|hu_mus|hu_hu_hu_mus_False|28_48 (ssRNA)
RNA: GGGAGUUCUACAGUCCGACGAUCGGUUUGGCUGUUACCCCCAAGGGAAUCCUGCAAGAGUCUUGUCAGCUUAGAGUCUCUGUAAGGGACAUGUGUGGCUCUCUUGCUCUUGUCUCCCAAGGCGCUGAUUACAUUCCCAAGAGCCAACAGAGGAUUGAGCAUCA
B4: chr1:39494564:39494565:+_ENSG00000168653_ENST00000372967|hu_hu|hu_hu_hu_mus_True|78_108 (ssRNA)
RNA: GGGAGUUCUACAGUCCGACGAUCAUGUGCACGUCUCAUCGUUUUGUACCGAAGCAAACACUCUACGAAGUCAUCGAACUCUAUCUUGCACUCCUUUUUCGCCCGGGUCCCACCGAUCCCGUGUGCACACUCUAUCCACUCUUUCAACAGAGGAUUGAGCAUCA
B5: chr2:217001844:217001845:+_ENSG00000079246_ENST00000392132|hu_hu|hu_hu_hu_mus_False|38_58 (ssRNA)
RNA: GGGAGUUCUACAGUCCGACGAUCACCAACUUGAGGAUUAGAUCUUUUGUCAUAAGCAUAUCGGACGAUGGCGACCAUGUCUAAGUCAUCCAAAGCAUGAAUCAGGGAGGAAAGGGCAACAGCUGCCGCCUCAUCAUCCUUUGCCAACAGAGGAUUGAGCAUCA
B6: chr4:126724723:126724724:-_ENSMUSG00000043872_ENSMUST00000106102|mus_mus|FALSE|FALSE (ssRNA)
RNA: GGGAGUUCUACAGUCCGACGAUCGAUGUGCCUACGACACAAUACGUCAACUGGAAUACUUUAAAGGAGAAGAGUCAGGUAAGAGGGUCAAUCAGUCUCAAGAGCUUACAAAUUCAAGACUAGCCUAGGCUACAGAGCAAGAUCCAACAGAGGAUUGAGCAUCA
B7: chr4:140556289:140556290:+_ENSMUSG00000036622_ENSMUST00000037055|mus_mus|mus_mus_mus_hu_False|1_68 (ssRNA)
RNA: GGGAGUUCUACAGUCCGACGAUCGAUGGAGCUCACCAGGCCCCCUUUUGCCGUGCAGAACCCUGUGCGAGUCACCACUGCCAGGACGUGCGGUCCCACAUAGGCCCGGGCCUGCAAGAUGAGGGUCCCGCAGAAGAGGGUGUGCAACAGAGGAUUGAGCAUCA
B8: chr2:104630212:104630213:-_ENSMUSG00000074994_ENSMUST00000117237|mus_mus|FALSE|FALSE (ssRNA)
RNA: GGGAGUUCUACAGUCCGACGAUCUGUAGUGUUAAAAGAUGAAUCUUGAAGCACCAAAGGUGAGGUGGUCGCAAAGUUUCUAUUGCUAAAGGUAGAUGAAUGCUGAUAGGCAGACAAAGUUGGUGGUGGAAGUGUCCCAGUGGUCAACAGAGGAUUGAGCAUCA
B9: chr7:129668796:129668797:-_ENSG00000091732_ENST00000358303|hu_mus|FALSE|FALSE (ssRNA)
RNA: GGGAGUUCUACAGUCCGACGAUCAGAAGGAAGUUGGAGGUCCAAAUGGCAAAGGCUUUGAAACCGGUCCAGGAACUCACUGAUGAGAACAGCAGGCUCACCCAAUGGCAACAUCCCAAAUCUAUCUGGAGAGGGGCUGUCUGGCAACAGAGGAUUGAGCAUCA
B10: chr5:44151052:44151053:-_ENSMUSG00000039753_ENSMUST00000047857|mus_mus|FALSE|FALSE (ssRNA)
RNA: GGGAGUUCUACAGUCCGACGAUCGUCGGUCUGGGUAAGAUCCAGAUGUUCCAGGUUAGGACAAAGCUCUAAAAUCUGCCUAACCAUUUUGCUGGAGACUGCAGAGCUGUACGCUAACACUAAAGUUUUUACAGAGGUACCAACCAACAGAGGAUUGAGCAUCA
B11: chr1:244855233:244855234:+_ENSG00000121644_ENST00000302550|hu_hu|FALSE|FALSE (ssRNA)
RNA: GGGAGUUCUACAGUCCGACGAUCCAUUAAAUGAUAAGCAUUGCCUUUGUAUUCUUUUCCCAGUUCUUCUACAAUUUUUUCUAUAUCAUCUUCUAGGAAGUCCGUGCUCCCUAAAACAACAGCUUCUUUAAAUUUAAAUGUUUCCAACAGAGGAUUGAGCAUCA
B12: 84647941_84648061_2016_CDS_ENSMUSG00000020530_ENSMUST00000108081|mouse|control|control (ssRNA)
RNA: GGGAGUUCUACAGUCCGACGAUCCAAUGGCUGCCCACCCUUCUCAGUGCUGCAACAACUCUCAGGAUGUGCAUCUUUGGUCUUGUCACGGUGAAACACUGUGUGCAUAGUGUUUCCUGAGGUCUCUCGAUUACCUGGAUCUGUCAACAGAGGAUUGAGCAUCA
B13: chr18:24050344:24050345:+_ENSMUSG00000024277_ENSMUST00000025127|mus_hu|FALSE|FALSE (ssRNA)
RNA: GGGAGUUCUACAGUCCGACGAUCUGGAGCUCAGGGCUGCACACCUGAAGUUACCCUUUAGUAGGGGUCCCCUAGAGUGAAUGACAGUUUUGUGGCUGAAACCUACACAAAGAGGAAGAGGAAUGAGGCAGGAAGACCCGUACCCAACAGAGGAUUGAGCAUCA
B14: chr14:102550858:102550859:-_ENSG00000080824_ENST00000216281|hu_mus|FALSE|FALSE (ssRNA)
RNA: GGGAGUUCUACAGUCCGACGAUCGUUGUUCUUUUUCUUUCUGUUUUCAAACAGAUCAAAAGGAGCGCGUCUUGGGACAAAAAGAAGGGCCCGGAAUUCUAAUUGUCCUUCAACAGAAAAAUGCUUUACUGCCAAGUGUUCUUCCAACAGAGGAUUGAGCAUCA
B15: chrX:12734859:12734860:+_ENSMUSG00000031010_ENSMUST00000089302|mus_mus|FALSE|FALSE (ssRNA)
RNA: GGGAGUUCUACAGUCCGACGAUCAUCACUGGCAGAUCCUCGGACUAUUUUCUUUGUGUGAAAUCCUGUAGUAAAAAGGAACCUAGCAGCAAGCUGAAUACUAAUCAUAGUGAUUUCUUCUGCUUCAGGAGACAGGUGAUCUUGCAACAGAGGAUUGAGCAUCA
B16: chr5:179004091:179004092:+_ENSG00000176783_ENST00000393438|hu_hu|FALSE|FALSE (ssRNA)
RNA: GGGAGUUCUACAGUCCGACGAUCUUCAUGCUCCUUGCCACCAUCAAGAUCCUGCACAUCCUUAAGGUAGAGGGAAAAAUCUAUUACUCCAACCUGAGAAUCCAAGUCUUCUCCUUUCAAGCAGAGAUUGGCAUCGAGAACAUUCAACAGAGGAUUGAGCAUCA
B17: chr2:216981417:216981418:+_ENSG00000079246_ENST00000392132|hu_hu|hu_hu_hu_mus_True|28_58 (ssRNA)
RNA: GGGAGUUCUACAGUCCGACGAUCCUGAUACUGGUCCUUGCCAGCAAGGGCAUUAUCAGUGCCAUCUGUGCCAUAGAGGACUAAAGCAAUCUCAUCUUUGCUCUCCGCAAACACCUGUCGUUGGACAAACAUAGUCAUCACUUUCAACAGAGGAUUGAGCAUCA
B18: chr10:1038518:1038519:+_ENSG00000107937_ENST00000545048|hu_hu|hu_hu_hu_mus_False|1_28 (ssRNA)
RNA: GGGAGUUCUACAGUCCGACGAUCCAGUCUGUCAUGGUAAUUCUGUUGAGUAAAUUUGACUUUUCUCAUAUAAAAAUGUCGAAUCCGAUGAAUUUGAUAAUGUUUAUGAAUAACGGUUGGAGUCUUUCGUUGAGUCUUCGACAACAACAGAGGAUUGAGCAUCA
B19: chr1:54531653:54531654:-_ENSMUSG00000073678_ENSMUST00000097739|mus_hu|motif|central (ssRNA)
RNA: GGGAGUUCUACAGUCCGACGAUCACACAAAAGAUGAACUCAUUUCAAAGAACAAUGUAAACUGAACUUAGGCCUUGUACACGGUCUUUUUACUAAUAACACCUAUGGUCCCCAUUAGAAUAAACUGUCACUAAAUCAAGGCCACAACAGAGGAUUGAGCAUCA
B20: chrX:71549762:71549763:+_ENSMUSG00000019087_ENSMUST00000019231|mus_mus|mus_mus_mus_hu_False|88_108 (ssRNA)
RNA: GGGAGUUCUACAGUCCGACGAUCAAAGUGUACCACUUCUUAUUGUUACAUCACCCCCACCAGAAAACGAUAACGACAGCCAAGCAGGACAGACAGUUAAGUAGUACUUCCACACUCCCAAACUCAGGGAGCCCUAUAACCUUACAACAGAGGAUUGAGCAUCA
B21: chr16:75327710:75327711:-_ENSG00000153774_ENST00000283882|hu_mus|FALSE|FALSE (ssRNA)
RNA: GGGAGUUCUACAGUCCGACGAUCUUUAAAAGACAAAUUUUAAAAAGGAAAAUGAAUGAAGCCAGGUGAAAUUAACAUACAUUAAACAAACUGCAACGUAGAAAAAGGGACUUGCUGGAAACAUGAUGAGGAACACUGGAAGUACAACAGAGGAUUGAGCAUCA
B22: 36892310_36892430_2491_3pUTR_ENSG00000198663_ENST00000480824|human|control|control (ssRNA)
RNA: GGGAGUUCUACAGUCCGACGAUCAUAAAAGGAACAGGAAAAGAACAUCCUUAUUUACACCAUUUGAUUGCUACCUACUAAAAGCACUUAGGAGAAAACAAUGCACAUAGUGAAUCAUCCAAUCAGAAACACACAGCUUUAUAUCAACAGAGGAUUGAGCAUCA

target: T1, UNK ZnF1-3; assay: nsRBNS (natural sequence RNA bind-n-seq); RBNS binding buffer (assumed for nsRBNS): 25 mM Tris pH 7.5, 150 mM KCl, 3 mM MgCl2, 0.01% Triton X-100, 500 ug/ml BSA, 20 U/ml SUPERase-In, 4 C; UNK is unkempt and MSI1 is Musashi-1; names of the RNAs are library labels; protein concentration not given here; high values mean tight binding

Row | Binder | binding signal
1 | B1 | 2.95 enrichment R
2 | B2 | 1.31 enrichment R
3 | B3 | 0.728 enrichment R
4 | B4 | 0.655 enrichment R
5 | B5 | 1.62 enrichment R
6 | B6 | 1.62 enrichment R
7 | B7 | 0.432 enrichment R
8 | B8 | 1.61 enrichment R
9 | B9 | 1.25 enrichment R
10 | B10 | 1.13 enrichment R
11 | B11 | 0.838 enrichment R
12 | B12 | 0.842 enrichment R
13 | B13 | 2.03 enrichment R
14 | B14 | 1.19 enrichment R
15 | B15 | 1.28 enrichment R
16 | B16 | 1.93 enrichment R
17 | B17 | 0.775 enrichment R
18 | B18 | 0.798 enrichment R
19 | B19 | 1.05 enrichment R
20 | B20 | 1.79 enrichment R
21 | B21 | 2.74 enrichment R
22 | B22 | 1.05 enrichment R
